Test results reported in the supplement of paper PMC3334620.
Over roughly 33,000 sequences, “E-score (-0.5 to 0.5)” has its median near -0.043; the highest 2% begin near 0.37. The list shows a part of the results.

target: T1, Upc2 (UniProt Q12151); experiment: PBM E-score (8-mer binding enrichment) (E-score (-0.5 to 0.5)); higher = stronger / more preferred TF binding; most listed sequences are background and not binding sites; details: protein concentration: 200 nM; construct: GST-full length
T1 sequence: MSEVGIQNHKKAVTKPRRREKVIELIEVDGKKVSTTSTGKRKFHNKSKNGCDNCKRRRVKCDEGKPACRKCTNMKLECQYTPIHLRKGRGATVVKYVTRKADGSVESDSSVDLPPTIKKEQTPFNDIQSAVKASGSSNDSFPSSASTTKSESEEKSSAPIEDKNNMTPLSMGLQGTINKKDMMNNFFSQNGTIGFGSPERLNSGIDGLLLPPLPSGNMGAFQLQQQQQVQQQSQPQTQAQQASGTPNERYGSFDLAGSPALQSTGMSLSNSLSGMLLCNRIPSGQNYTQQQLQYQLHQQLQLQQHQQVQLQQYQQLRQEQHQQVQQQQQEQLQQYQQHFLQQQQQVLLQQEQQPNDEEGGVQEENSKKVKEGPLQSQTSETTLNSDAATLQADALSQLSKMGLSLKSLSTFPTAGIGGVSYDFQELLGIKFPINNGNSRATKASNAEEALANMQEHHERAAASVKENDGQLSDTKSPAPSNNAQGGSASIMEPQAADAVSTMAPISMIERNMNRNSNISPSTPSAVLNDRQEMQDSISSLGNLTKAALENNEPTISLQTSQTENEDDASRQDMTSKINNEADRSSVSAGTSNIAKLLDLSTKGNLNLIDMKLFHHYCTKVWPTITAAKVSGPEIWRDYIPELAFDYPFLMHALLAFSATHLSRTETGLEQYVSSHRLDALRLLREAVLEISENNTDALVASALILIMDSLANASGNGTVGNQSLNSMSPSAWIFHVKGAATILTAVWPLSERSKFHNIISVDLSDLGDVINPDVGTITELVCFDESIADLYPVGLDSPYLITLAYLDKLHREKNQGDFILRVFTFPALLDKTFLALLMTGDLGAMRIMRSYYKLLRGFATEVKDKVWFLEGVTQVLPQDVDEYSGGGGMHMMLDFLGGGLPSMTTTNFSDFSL
In short: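 E-scores (a modified Wilcoxon-Mann-Whitney statistic) were assigned by the Universal PBM Analysis Suite to every ungapped eight-base word pooled with its reverse complement. The input came from universal all-10-mer Agilent arrays made double-stranded by primer extension and probed with GST-tagged yeast transcription factors at about 100-200 nM. Fluorescent anti-GST detected bound protein, and masliner normalised the scans.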

Row | Sequence | PBM E-score
1 | GGGACCGA | 0.146
2 | GGTATTAC | 0.0133
3 | CGTACTGC | 0.245
4 | AATACCCA | -0.155
5 | AAACAAGG | -0.188
6 | GTAAGACA | 0.101
7 | TATTTAAA | 0.131
8 | AATTGCAC | -0.103
9 | AGTTCCAA | -0.216
10 | AGGGGCAA | -0.0978
11 | AAGTGATG | -0.0502
12 | AGTGTTGA | -0.0264
13 | CATTGGGG | -0.304
14 | CAGGGTTC | 0.0515
15 | ATCCATTC | 0.136
16 | AAAGCGAA | 0.0877
17 | AGTCTAGG | -0.159
18 | CCATTTAA | -0.0213
19 | ATCCTTGG | -0.199
20 | AGAAAAAA | -0.0692
21 | CACTCAGC | -0.223
22 | GCACCGAA | 0.0996

Row | Sequence | PBM E-score
23 | AATTCGAG | 0.00487
24 | CAGGTCGA | -0.235
25 | ACGAAACC | 0.267
26 | ACTTCTCG | 0.197
27 | AACTCGTC | 0.0662
28 | AAGTTGAG | 0.0579
29 | GGATTCGA | -0.251
30 | AAGACTGT | -0.0358
31 | AGTGAGCC | -0.249
32 | GATCAAAC | 0.123
33 | AGTTGACG | -0.114
34 | GAAGCCTA | 0.0141
35 | TCAGCCCA | -0.155
36 | CATCACTC | -0.168
37 | GCTTGGCC | -0.113
38 | CTAGAATC | 0.0144
39 | CTGTCACC | -0.127
40 | CTTTAAAG | -0.114
41 | CATGTCAG | -0.372
42 | CCCGTACG | 0.393
43 | ACGACTGG | 0.289
44 | CCTGCCTC | 0.0268

Row | Sequence | PBM E-score
45 | CCTTCAAC | -0.125
46 | CGGGGCAA | -0.0771
47 | ACACGAAC | 0.216
48 | CGTTTCAC | 0.238
49 | CACTAACA | -0.087
50 | ATCGTCAT | 0.109
51 | CACGGACG | -0.137
52 | CGCTTGCC | -0.0304
53 | TTAGAGAA | -0.124
54 | AGTAAACC | -0.0507
55 | CGACGTCA | 0.0552
56 | CAATTAAA | 0.0542
57 | AATTTCCT | -0.129
58 | AGACTATA | 0.197
59 | CAGGATCC | -0.0255
60 | AATAGTCC | -0.249
61 | GAACCCCC | -0.21
62 | GGGAGGAC | -0.118
63 | CGGACACA | -0.111
64 | ACCGAAGT | 0.147
65 | ATGCCTCC | -0.214
66 | CCCTCAGA | -0.114

Row | Sequence | PBM E-score
67 | ATGCAATA | -0.105
68 | GCAACAAC | -0.0227
69 | CGAAATAA | 0.22
70 | TCACTTCA | -0.239
71 | AAAGCTTA | -0.0429
72 | ACAACCAA | -0.118
73 | GAGCATAC | 0.13
74 | CGAATTCC | 0.17
75 | AGTCCCAC | -0.208
76 | GATTCCCA | -0.0776
77 | AAGCGTTC | -0.0577
78 | AGCATCCT | -0.132
79 | AGACATCT | 0.12
80 | GGTGTAGA | -0.0982
81 | AGCACCGG | -0.202
82 | AATAAAAT | -0.0336
83 | ATCTCCAC | -0.126
84 | GCCTGGCA | -0.27
85 | ACTCGTTA | 0.35
86 | AGACAACA | 0.0149
